# Results as given in the supplement of paper PMC8728848.
# The list shows a part of the results.
# B1: NPA (Narcissus pseudonarcissus), C0HM45 (protein)
# chain: DNILYSGETLSPGEFLNNGRYVFIMQEDCNLVLYDVDKPIWATNTGGLDRRCHLSMQSDGNLVVYSPRNNPIWASNTGGENGNYVCVLQKDRNVVIYGTARWATGTNIH
# What was measured:
# Assay in all cases: glycan array binding signal (z-score within array); higher = stronger binding
# Conditions in all cases: glycan notation: IUPAC condensed, linker removed
# [1] = biological target: Fuc(a1-2)[GalNAc(b1-3)]Gal
# Summary of the method: (§1)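 The binding signal is a Z-score computed within each array and averaged over linkers. Arrays of the same protein sequence at different concentrations or buffers were also averaged together. Data originate from 3228 arrays in the Consortium for Functional Glycomics database, kept only where the protein sequence was available.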
# [2] = biological target: Fuc(a1-3)GlcNAc
# Summary of the method: as §1
# [3] = biological target: Fuc(a1-3)[Gal(b1-4)]Glc6S
# Summary of the method: as §1
# [4] = biological target: Fuc(a1-3)[Gal(b1-4)]GlcNAc
# Summary of the method: as §1
# [5] = biological target: Fuc(a1-3)[Gal(b1-4)]GlcNAc(b1-2)Man
# Summary of the method: as §1
# [6] = biological target: Fuc(a1-3)[Gal(b1-4)]GlcNAc(b1-2)Man(a1-3)[Fuc(a1-3)[Gal(b1-4)]GlcNAc(b1-2)Man(a1-6)]Man(b1-4)GlcNAc(b1-4)GlcNAc
# Summary of the method: as §1
# [7] = biological target: Fuc(a1-3)[Gal(b1-4)]GlcNAc(b1-2)Man(a1-3)[Fuc(a1-3)[Gal(b1-4)]GlcNAc(b1-2)Man(a1-6)]Man(b1-4)GlcNAc(b1-4)[Fuc(a1-6)]GlcNAc
# Summary of the method: as §1
# [8] = biological target: Fuc(a1-3)[Gal(b1-4)]GlcNAc(b1-3)Gal(b1-3)[Fuc(a1-4)]GlcNAc
# Summary of the method: as §1
# [9] = biological target: Fuc(a1-3)[Gal(b1-4)]GlcNAc(b1-3)Gal(b1-4)[Fuc(a1-3)]GlcNAc
# Summary of the method: as §1
# [10] = biological target: Fuc(a1-3)[Gal(b1-4)]GlcNAc(b1-3)Gal(b1-4)[Fuc(a1-3)]GlcNAc(b1-3)Gal(b1-4)[Fuc(a1-3)]GlcNAc
# Summary of the method: as §1
# [11] = biological target: Fuc(a1-3)[Gal(b1-4)]GlcNAc(b1-3)GalNAc
# Summary of the method: as §1
# [12] = biological target: Fuc(a1-3)[Gal(b1-4)]GlcNAc(b1-4)Gal(b1-4)[Fuc(a1-3)]GlcNAc
# Summary of the method: as §1
# [13] = biological target: Fuc(a1-3)[Gal(b1-4)]GlcNAc(b1-4)Gal(b1-4)[Fuc(a1-3)]GlcNAc(b1-4)Gal(b1-4)[Fuc(a1-3)]GlcNAc
# Summary of the method: as §1
# [14] = biological target: Fuc(a1-3)[Gal(b1-4)]GlcNAc(b1-6)GalNAc
# Summary of the method: as §1
# [15] = biological target: Fuc(a1-3)[Gal(b1-4)]GlcNAc(b1-6)[Gal(b1-3)GlcNAc(b1-3)]Gal(b1-4)Glc
# Summary of the method: as §1
# [16] = biological target: Fuc(a1-3)[Gal(b1-4)]GlcNAc6S
# Summary of the method: as §1
# [17] = biological target: Fuc(a1-3)[Gal3S(b1-4)]Glc
# Summary of the method: as §1
# [18] = biological target: Fuc(a1-3)[Gal3S(b1-4)]GlcNAc
# Summary of the method: as §1
# [19] = biological target: Fuc(a1-3)[Gal3S(b1-4)]GlcNAc6S
# Summary of the method: as §1
# [20] = biological target: Fuc(a1-3)[GalNAc(b1-4)]GlcNAc
# Summary of the method: as §1
# [21] = biological target: Fuc(a1-3)[GalNAc(b1-4)]GlcNAc6S
# Summary of the method: as §1
# [22] = biological target: Fuc(a1-4)GlcNAc
# Summary of the method: as §1
# [23] = biological target: Fuc(b1-3)GlcNAc
# Summary of the method: as §1
# [24] = biological target: Gal(a1-2)Gal
# Summary of the method: as §1
# [25] = biological target: Gal(a1-3)Gal
# Summary of the method: as §1
# [26] = biological target: Gal(a1-3)Gal(b1-3)GlcNAc
# Summary of the method: as §1
# [27] = biological target: Gal(a1-3)Gal(b1-3)GlcNAc(b1-2)Man
# Summary of the method: as §1
# [28] = biological target: Gal(a1-3)Gal(b1-3)GlcNAc(b1-2)Man(a1-3)[Gal(a1-3)Gal(b1-3)GlcNAc(b1-2)Man(a1-6)]Man(b1-4)GlcNAc(b1-4)GlcNAc
# Summary of the method: as §1
# [29] = biological target: Gal(a1-3)Gal(b1-3)GlcNAc(b1-3)GalNAc
# Summary of the method: as §1
# [30] = biological target: Gal(a1-3)Gal(b1-3)GlcNAc(b1-6)GalNAc
# Summary of the method: as §1
# [31] = biological target: Gal(a1-3)Gal(b1-3)[Fuc(a1-4)]GlcNAc(b1-2)Man(a1-3)[Gal(a1-3)Gal(b1-3)[Fuc(a1-4)]GlcNAc(b1-2)Man(a1-6)]Man(b1-4)GlcNAc(b1-4)GlcNAc
# Summary of the method: as §1
# [32] = biological target: Gal(a1-3)Gal(b1-4)Glc
# Summary of the method: as §1
# [33] = biological target: Gal(a1-3)Gal(b1-4)GlcNAc
# Summary of the method: as §1
# [34] = biological target: Gal(a1-3)Gal(b1-4)GlcNAc(b1-2)Man
# Summary of the method: as §1
# [35] = biological target: Gal(a1-3)Gal(b1-4)GlcNAc(b1-2)Man(a1-3)[Gal(a1-3)Gal(b1-4)GlcNAc(b1-2)Man(a1-6)]Man(b1-4)GlcNAc(b1-4)GlcNAc
# Summary of the method: as §1
# [36] = biological target: Gal(a1-3)Gal(b1-4)GlcNAc(b1-3)GalNAc
# Summary of the method: as §1
# [37] = biological target: Gal(a1-3)Gal(b1-4)GlcNAc(b1-6)GalNAc
# Summary of the method: as §1
# [38] = biological target: Gal(a1-3)Gal(b1-4)[Fuc(a1-3)]GlcNAc
# Summary of the method: as §1
# [39] = biological target: Gal(a1-3)Gal(b1-4)[Fuc(a1-3)]GlcNAc(b1-2)Man(a1-3)[Gal(a1-3)Gal(b1-4)[Fuc(a1-3)]GlcNAc(b1-2)Man(a1-6)]Man(b1-4)GlcNAc(b1-4)GlcNAc
# Summary of the method: as §1
# [40] = biological target: Gal(a1-3)GalNAc
# Summary of the method: as §1
# [41] = biological target: Gal(a1-3)[Gal(a1-4)]Gal(b1-4)GlcNAc
# Summary of the method: as §1
# [42] = biological target: Gal(a1-4)Gal(b1-3)GlcNAc(b1-2)Man(a1-3)[Gal(a1-4)Gal(b1-3)GlcNAc(b1-2)Man(a1-6)]Man(b1-4)GlcNAc(b1-4)GlcNAc
# Summary of the method: as §1
# [43] = biological target: Gal(a1-4)Gal(b1-4)Glc
# Summary of the method: as §1
# [44] = biological target: Gal(a1-4)Gal(b1-4)GlcNAc
# Summary of the method: as §1
# [45] = biological target: Gal(a1-4)Gal(b1-4)GlcNAc(b1-2)Man(a1-3)[Gal(a1-4)Gal(b1-4)GlcNAc(b1-2)Man(a1-6)]Man(b1-4)GlcNAc(b1-4)GlcNAc
# Summary of the method: as §1
binder,measurement,setting,value
B1,glycan array binding signal (z-score),[1],-0.153
same,glycan array binding signal (z-score),[2],-0.154
same,glycan array binding signal (z-score),[3],-0.127
same,glycan array binding signal (z-score),[4],-0.136
same,glycan array binding signal (z-score),[5],-0.131
same,glycan array binding signal (z-score),[6],-0.132
same,glycan array binding signal (z-score),[7],-0.126
same,glycan array binding signal (z-score),[8],-0.122
same,glycan array binding signal (z-score),[9],-0.125
same,glycan array binding signal (z-score),[10],-0.147
same,glycan array binding signal (z-score),[11],-0.139
same,glycan array binding signal (z-score),[12],-0.161
same,glycan array binding signal (z-score),[13],-0.172
same,glycan array binding signal (z-score),[14],-0.098
same,glycan array binding signal (z-score),[15],-0.139
same,glycan array binding signal (z-score),[16],-0.129
same,glycan array binding signal (z-score),[17],-0.131
same,glycan array binding signal (z-score),[18],-0.164
same,glycan array binding signal (z-score),[19],-0.136
same,glycan array binding signal (z-score),[20],-0.148
same,glycan array binding signal (z-score),[21],-0.152
same,glycan array binding signal (z-score),[22],-0.156
same,glycan array binding signal (z-score),[23],-0.154
same,glycan array binding signal (z-score),[24],-0.155
same,glycan array binding signal (z-score),[25],-0.157
same,glycan array binding signal (z-score),[26],-0.133
same,glycan array binding signal (z-score),[27],-0.146
same,glycan array binding signal (z-score),[28],-0.095
same,glycan array binding signal (z-score),[29],-0.146
same,glycan array binding signal (z-score),[30],-0.144
same,glycan array binding signal (z-score),[31],0.645
same,glycan array binding signal (z-score),[32],-0.147
same,glycan array binding signal (z-score),[33],-0.158
same,glycan array binding signal (z-score),[34],-0.135
same,glycan array binding signal (z-score),[35],2.1
same,glycan array binding signal (z-score),[36],-0.141
same,glycan array binding signal (z-score),[37],-0.134
same,glycan array binding signal (z-score),[38],-0.149
same,glycan array binding signal (z-score),[39],-0.056
same,glycan array binding signal (z-score),[40],-0.132
same,glycan array binding signal (z-score),[41],-0.138
same,glycan array binding signal (z-score),[42],0.166
same,glycan array binding signal (z-score),[43],-0.141
same,glycan array binding signal (z-score),[44],-0.15
same,glycan array binding signal (z-score),[45],0.223
